{
  "source": "patent US20220403048A1",
  "about": "“BINDING MOLECULES TO ARGINASE II [ARG2]” (Cancer Research Technology Limited, priority 2019, published 2022)",
  "molecules": {"B1": {"name": "C0020187: anti-ARG2 antibody, parent lead isolation clone, VH SEQ ID NO: 12, VL SEQ ID NO: 17 (antibody, listed as Homo sapiens, V domains shown)", "VH": "[about 100 residues not given here]LRADLGLYMDLWGRGTLVTVSS", "VL": "QSVLTQPPSVSAAPGQKVTISCSGSSSNIGNHYVSWYQQLPGTAPKLLIYDNSERPSGIPDRFSGSKSGTSATLGITGLQTGDEADYYCGTWDSSLSALVFGGGTKLTVL", "modifications": "C0020187"}},
  "key": {"trimeric human ARG2": {"molecular_target": "T1, trimeric human ARG2 (Homo sapiens, UniProt P78540)", "T1 construct": "human ARG2 (aa23-354); His10 (C); made in house; host or cells: E. coli BL21 (DE3)", "T1 sequence (P78540 23-354)": "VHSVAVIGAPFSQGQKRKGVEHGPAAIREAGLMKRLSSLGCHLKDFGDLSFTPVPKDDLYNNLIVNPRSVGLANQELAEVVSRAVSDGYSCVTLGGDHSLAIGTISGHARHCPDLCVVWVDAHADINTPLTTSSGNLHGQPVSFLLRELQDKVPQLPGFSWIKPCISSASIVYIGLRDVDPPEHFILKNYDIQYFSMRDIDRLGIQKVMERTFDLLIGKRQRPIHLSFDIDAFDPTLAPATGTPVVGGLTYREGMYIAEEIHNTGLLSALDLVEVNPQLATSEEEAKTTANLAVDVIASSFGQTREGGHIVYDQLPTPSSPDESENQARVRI", "assay": "Human trimeric ARG2 enzyme inhibition assay (urea production)", "format": "biochemical", "protocol": "Unpurified anti-ARG2 scFv fragments from periplasmic preparations were screened in an ARG2 enzyme inhibition assay using a Pherastar plate reader (BMG Labtech, Germany). In this assay, the ability of unpurified scFv to inhibit the enzymatic activity of trimeric ARG2 was determined by measuring the production of urea, the product of L-arginine turnover by ARG2.\nSelection outputs were screened as unpurified bacterial periplasmic extracts containing scFv, prepared in 200 mM TES buffer pH 7.4, 0.5 mM EDTA and 0.5 M sucrose. 10 μl of unpurified scFv were added to a Greiner Bio-One® 384 well assay plate (Greiner Bio-one, UK; cat: 781901). […]\nUrea was detected by the simultaneous addition of equal volumes of O-Phthaldialdehyde (1.5 mM O-Phthaldialdehyde, 7% H2SO4, 0.03% Brij L23) and N-(1-Napthyl)ethylenediamine (1.66 mM N-(1-Napthyl)ethylenediamine, 81 mM Boric acid, 21% H2SO4, 0.03% Brij L23) followed by an 18 minute incubation at room temperature before the colorimetric product was quantified on the Pherastar by measuring absorbance at 505 nm. […]\nData were analysed by calculating % maximum (max) control for each sample using the 505 nm absorbance data. % max control was determined according to equation 2. […]\nData were again analysed by calculating % Max control values for each sample. […]"}, "ARG2": {"molecular_target": "T2, ARG2 (Homo sapiens, UniProt P78540)", "T2 sequence (P78540 23-354)": "T1 sequence (P78540 23-354)", "assay": "T cell proliferation assay (BrdU, 72 hours) with exogenous ARG2", "format": "cell-based", "settings": "In Absence of rhARG2", "protocol": "This assay served to provide in vitro evidence of functional efficacy for each antibody.\nBriefly, Leukocyte cones (NHS Blood and Transplant, Watford, UK) underwent Ficoll Plaque (GE, Sweden; Cat: 17-1440-02) gradient separation, PBMC's were extracted and pan T cell population isolated by negative selection using the Human T Cell Enrichment Kit (Stemcell Technologies, France; Cat: 19051) according to the manufacturer's instructions.\n40000 cells/well were seeded in complete growth media (RMPI 1640, 5% Human Serum Albumin) into a 96 well clear TC treated microplate (Greiner-Bio One, Germany; Cat: 655180). T Cells were activated by the addition of ImmunoCult CD3/CD28 (Stemcell Technologies, France; Cat: 10971) at a dilution of 1:40 directly into wells and the plate incubated 37° C., 5% CO2 for 45 minutes.\nTo determine EC50's of test antibodies, a dilution series was created in sterile TBS at 8× the final assay concentration was added to the assay plate containing cells. Plate was incubated for 30 minutes at 37° C., 5% CO2.\nARG2 was added to relevant wells of the plate at a final concentration of 15 μg/ml. The equivalent volume of ARG2 vehicle and test antibody vehicle was added to relevant control wells. […]\nCalculated data was expressed as % of control (Equation 3) and graphical plots were constructed using a four parameter fit and EC50's determined using model 205 in XLFit (IDBS, UK). […]"}},
  "data": [
    {"molecule": "B1", "values": [
      {"measurement": "inhibition of the activity of human trimeric ARG2", "setting": "trimeric human ARG2; purified recombinant human IgG1, FIG. 3", "result": "inhibited"},
      {"measurement": "inhibition of the activity of human trimeric ARG2", "setting": "trimeric human ARG2; purified scFv, FIG. 2", "result": "inhibited"},
      {"measurement": "EC50", "setting": "ARG2", "result": "< 0.8", "unit": "nM"},
      {"measurement": "Maximum % Proliferation", "setting": "ARG2", "result": 98, "unit": "%"}
    ]}
  ]
}
